This note sets out measurements from a collection of fitness landscapes (doi:10.1126/science.1257360).

The list shows a part of the results.

First the molecules themselves.
B1: PhoQ; a variant is named by its letters at X, in order, P23837 (parent)
chain: MKKLLRLFFPLSLRVRFLLATAAVVLVLSLAYGMVALIGYSVSFDKTTFRLLRGESNLFYTLAKWENNKLHVELPENIDKQSPTMTLIYDENGQLLWAQRDVPWLMKMIQPDWLKSNGFHEIEADVNDTSLLLSGDHSIQQQLQEVREDDDDAEMTHSVAVNVYPATSRMPKLTIVVVDTIPVELKSSYMVWSWFIYVLSANLLLVIPLLWVAAWWSLRPIEALAKEVRELEEHNRELLNPATTRELTSLVRNLNRLLKSERERYDKYRTTLTDLTHSLKTPLXXLQXXLRSLRSEKMSVSDAEPVMLEQISRISQQIGYYLHRASMRGGTLLSRELHPVAPLLDNLTSALNKVYQRKGVNISLDISPEISFVGEQNDFVEVMGNVLDNACKYCLEFVEISARQTDEHLYIVVEDDGPGIPLSKREVIFDRGQRVDTLRPGQGVGLAVAREITEQYEGKIVAGESMLGGARMEVIFGRQHSAPKDE

The variants in this test derive from B1. In words: enrichment ratio after two sorts for PhoP signalling (ratio (wild type AVST 3.29)); higher = more functional. The following applies: with PhoP (E. coli).
Take IVRS: the enrichment ratio is at most 0.25.
In the case of GGYL it was at most 0.25; in that of AHWD, at most 0.25; in that of LAVV, at most 0.25.
Under VCLA stands 0.76.
Under HQIK stands at most 0.25.
Consider PYSC, for which the enrichment ratio was at most 0.25.
In the case of ISVW it was at most 0.25; in that of FKDY, at most 0.25; in that of TGGL, 3.52.
In the case of FKGY it was at most 0.25.
Under EMIA stands at most 0.25.
In the case of KQRH, the enrichment ratio is at most 0.25.
Consider DNMW, for which the enrichment ratio is at most 0.25.
As to NQGA, the enrichment ratio was at most 0.25.
Take DIII: the enrichment ratio is at most 0.25.
In the case of NEQT it was at most 0.25.
As for VLPH, the enrichment ratio is at most 0.25.
Turning to QGII, the enrichment ratio is at most 0.25.
In the case of TTRV it was at most 0.25; in that of MCEF, at most 0.25; in that of RKSE, at most 0.25.
Turning to KDIC, the enrichment ratio was at most 0.25.
Take ASWT: the enrichment ratio was at most 0.25.
In the case of WWIL it was at most 0.25; in that of PNFE, at most 0.25; in that of MRHW, at most 0.25.
In the case of NRLG it was at most 0.25; in that of PKAA, at most 0.25.
On to LWML, for which the enrichment ratio was at most 0.25.
In the case of GLMI it was 2.79; in that of QPYV, at most 0.25.
Under QLSY stands at most 0.25; under SNWM, at most 0.25; under QFTV, at most 0.25.
On to KRSH, for which the enrichment ratio is at most 0.25.
As to SKFM, the enrichment ratio is 1.42.
Take VYID: the enrichment ratio was at most 0.25.
In the case of LVHC it was 15.
Under KRFH stands at most 0.25.
Under EVLE stands at most 0.25; under YCPH, at most 0.25.
With RMPY, the enrichment ratio was at most 0.25.
In the case of MESG it was 15.7; in that of WHDR, at most 0.25.
Under QGSF stands 1.82; under PGPC, at most 0.25; under GIAI, 6.79.
Under ICFS stands at most 0.25; under VKDN, at most 0.25.
Turning to LNLK, the enrichment ratio was at most 0.25.
As to ERFR, the enrichment ratio was at most 0.25.
In the case of QVDK it was at most 0.25; in that of VVGH, at most 0.25; in that of VTIF, at most 0.25.
Regarding EASV, the enrichment ratio is at most 0.25.
Under MHGV stands at most 0.25; under PSGI, at most 0.25.
On to DCIT, for which the enrichment ratio is at most 0.25.
Under YKPT stands at most 0.25; under LKRT, 0.317.
As to PVTW, the enrichment ratio is at most 0.25.
Under WQYI stands at most 0.25; under FCGM, at most 0.25; under ECSI, at most 0.25.
Under AKVV stands 11.
In the case of CTIF, the enrichment ratio was at most 0.25.
In the case of QAIH it was at most 0.25; in that of LQHY, at most 0.25.
In the case of SNRD it was at most 0.25; in that of HIPL, at most 0.25.
Under RPTH stands at most 0.25.
For the variant RFCG, the enrichment ratio is at most 0.25.
In the case of IDRD, the enrichment ratio was at most 0.25.
In the case of WMRS it was at most 0.25.
Under QHER stands at most 0.25; under RLYH, at most 0.25; under YSPL, at most 0.25.
Under ETAD stands at most 0.25; under KLIA, at most 0.25.
With HEMY, the enrichment ratio is at most 0.25.
Consider ADGH, for which the enrichment ratio was at most 0.25.
As to PHSV, the enrichment ratio was at most 0.25.
Under RSCY stands at most 0.25; under YSKL, at most 0.25.
Under RGLE stands at most 0.25; under SYMA, at most 0.25.
In the case of QCSV it was at most 0.25; in that of NLAC, at most 0.25.
As to NNTK, the enrichment ratio was at most 0.25.
Turning to SLGI, the enrichment ratio stood at 3.99.
On to ACVC, for which the enrichment ratio turned out to be 1.02.
In the case of RHMK it was at most 0.25; in that of GNIR, at most 0.25; in that of QTDP, at most 0.25.
For FQTW, the enrichment ratio is at most 0.25.
Under DWYP stands at most 0.25.
Under RHNM stands at most 0.25; under MLID, at most 0.25.
In the case of LLVF it was at most 0.25; in that of TPAV, at most 0.25.
In the case of FFHC, the enrichment ratio is at most 0.25.
Under NDNA stands at most 0.25.
In the case of TIQS it was 8.68; in that of TSLD, 8.58; in that of TEQW, at most 0.25.
Under RKQF stands at most 0.25; under SCSN, 12.3; under PMPH, at most 0.25.
Consider CGWP, for which the enrichment ratio is at most 0.25.
In the case of FHYA it was at most 0.25.
In the case of RHPA it was at most 0.25.
Under TCAS stands 12.2; under IAEI, at most 0.25.
On to SFTA, for which the enrichment ratio was determined as 0.401.
For HAAK, the enrichment ratio is at most 0.25.
Under LVLR stands at most 0.25; under EYYF, at most 0.25.
In the case of MQQA, the enrichment ratio is at most 0.25.
As to VIVV, the enrichment ratio was at most 0.25.
For FDVM, the enrichment ratio was at most 0.25.
As to KHAS, the enrichment ratio is at most 0.25.
HLSQ: the enrichment ratio was at most 0.25.
In the case of YTAR it was at most 0.25; in that of VPRI, at most 0.25.
Under SDVT stands 1.53.
Under FFFQ stands at most 0.25; under ETSI, at most 0.25.
In the case of MDFH, the enrichment ratio was at most 0.25.
EPGS: the enrichment ratio is at most 0.25.
In the case of FMKG it was at most 0.25.
On to ELDH, for which the enrichment ratio is at most 0.25.
As to VTRY, the enrichment ratio is at most 0.25.
As to GTAY, the enrichment ratio was at most 0.25.
As to EAPH, the enrichment ratio is at most 0.25.
Take SFHA: the enrichment ratio is at most 0.25.
In the case of LHRQ it was at most 0.25; in that of LLPE, at most 0.25.
As for NPFS, the enrichment ratio is at most 0.25.
For NSYL, the enrichment ratio is at most 0.25.
For IIAH, the enrichment ratio is at most 0.25.
In the case of CSLS it was 21.9; in that of VFDQ, at most 0.25.
Under TAGM stands 13.2.
Under VSAW stands at most 0.25; under EDLC, at most 0.25.
For the variant FSIT, the enrichment ratio is at most 0.25.
In the case of PFCW it was at most 0.25.
Under TFMY stands at most 0.25.
In the case of DIPG it was at most 0.25; in that of IDMV, at most 0.25.
For the variant ICFQ, the enrichment ratio was at most 0.25.
In the case of DGMK, the enrichment ratio is at most 0.25.
